Results published in the BET-seq Pho4 binding data (Le et al. 2018).
Some of the results follow. These are noisy estimates, calculated here from bound and input reads.

Target: T1, Pho4 (S. cerevisiae) (UniProt P07270)
T1 sequence: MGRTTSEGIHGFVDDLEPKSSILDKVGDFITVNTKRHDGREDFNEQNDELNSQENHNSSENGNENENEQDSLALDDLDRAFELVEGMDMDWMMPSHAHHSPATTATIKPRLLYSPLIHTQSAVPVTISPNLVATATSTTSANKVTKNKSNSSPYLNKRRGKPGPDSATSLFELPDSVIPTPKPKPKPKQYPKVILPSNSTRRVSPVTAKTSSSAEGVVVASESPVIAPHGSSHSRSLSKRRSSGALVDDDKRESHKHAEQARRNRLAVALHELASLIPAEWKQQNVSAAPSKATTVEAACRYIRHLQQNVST
Test: relative binding free energy (BET-seq); higher = weaker binding
Conditions: reference: library average

Row | Sequence | relative binding free energy [kcal/mol]
1 | TCGAGCACGTGGTGAT | -0.14
2 | GGAGCCACGTGATGTG | 0.1
3 | TACTGCACGTGTATGA | 0.11
4 | GGCTGCACGTGGGACG | 0.06
5 | TTTTACACGTGGAGTG | 0.12
6 | AGCGGCACGTGGTTCT | -0.18
7 | GTGATCACGTGGGTTT | 0.07
8 | ATAGTCACGTGGAGTT | 0.2
9 | TTAGGCACGTGGGTTA | -0.22
10 | GGTAACACGTGTAAGG | 0.11
11 | GATCTCACGTGTTGTG | 0.25
12 | TGTTACACGTGATCTG | 0.06
13 | CTCTACACGTGGGTGT | -0.04
14 | GAAGTCACGTGGTAAG | 0.07
15 | TGGCTCACGTGTTTGG | 0.16
16 | TGTTGCACGTGGGTAT | -0.08
17 | GGATTCACGTGATATG | 0.33
18 | TAATTCACGTGTGGGT | 0.21
19 | TACATCACGTGTATTG | 0.14
20 | CTCGGCACGTGGGGCT | -0.14
21 | ATTTCCACGTGGGGGC | 0
22 | AATATCACGTGAGGGC | 0.53
23 | GGTTTCACGTGTTCTT | 0.29

Row | Sequence | relative binding free energy [kcal/mol]
24 | GGTGGCACGTGAGCGA | 0.1
25 | TATGGCACGTGGCGCG | -0.15
26 | TATGGCACGTGGCGCA | -0.17
27 | TCTGTCACGTGGTGCG | -0.12
28 | TAGGTCACGTGGTCGC | -0.08
29 | CATGGCACGTGGGTGA | -0.18
30 | TTGTGCACGTGCTTAA | -0.12
31 | AAGAGCACGTGGAGGC | -0.15
32 | GTAATCACGTGTAATT | 0.29
33 | TGTTGCACGTGTATCT | -0.03
34 | TTAGACACGTGCTGGG | -0.21
35 | TAAAGCACGTGATATT | -0.01
36 | ATGAACACGTGGAGAG | 0.14
37 | GATATCACGTGATGTA | 0.39
38 | AATTACACGTGGGCTT | -0.07
39 | CTTTGCACGTGTTATG | -0.03
40 | GATGGCACGTGGCCGG | -0.03
41 | GATGTCACGTGTGTAA | 0.2
42 | CATGGCACGTGGTGGT | -0.09
43 | TTTCACACGTGATAGT | 0.24
44 | GGGGACACGTGGATAG | 0.06
45 | GTCCGCACGTGGGAGG | -0.26
46 | CTGGGCACGTGAAGGC | 0.11

Row | Sequence | relative binding free energy [kcal/mol]
47 | TGGGTCACGTGCGGCG | -0.01
48 | GTAAGCACGTGGAATG | -0.03
49 | GTATACACGTGTAGGA | -0.03
50 | TCGGGCACGTGAGTGG | 0.17
51 | CGTAGCACGTGGTGAT | -0.26
52 | AAGTTCACGTGGAATG | 0.19
53 | GGGCTCACGTGTAGAT | 0.37
54 | AGTTTCACGTGGTTCT | 0.31
55 | CAACTCACGTGGTAGG | 0.41
56 | AGTGGCACGTGGGAGA | -0.2
57 | TAGTTCACGTGACTGG | 0.31
58 | CTATACACGTGGTGGT | -0.18
59 | GTATACACGTGGGGAG | 0.01
60 | GTTCTCACGTGGTCTG | 0.1
61 | GTGGGCACGTGTTAAG | -0.06
62 | CTTTACACGTGCGTGT | 0.06
63 | TGGCGCACGTGACGGG | -0.02
64 | TGTGTCACGTGTGTAA | 0.07
65 | GAATCCACGTGGTGGT | 0.04
66 | TAGTTCACGTGTGTCG | 0.27
67 | AGGGGCACGTGCTAGG | -0.24
68 | TATCTCACGTGTTGTT | 0.12
69 | CTTTACACGTGTGTGT | 0.21

Row | Sequence | relative binding free energy [kcal/mol]
70 | TTAACCACGTGGTAGG | -0.09
71 | TCATGCACGTGTGTTG | 0.04
72 | ATTTGCACGTGGTTAC | 0
73 | ATTGTCACGTGCGGTT | 0.03
74 | TTAGGCACGTGATTTT | 0.03
75 | GTGGTCACGTGTCATT | 0.12
76 | GGCGTCACGTGCTAGG | 0.02
77 | GAAGACACGTGGGTAT | -0.1
78 | ACTGGCACGTGTGTTG | -0.12
79 | GTGACCACGTGTAAGT | 0.22
80 | TGTCGCACGTGTTATT | 0.03
81 | GAGCGCACGTGAGGGT | 0.1
82 | GGTGACACGTGGACGT | -0.03
83 | CTAGGCACGTGTATAG | -0.02
84 | GGTGTCACGTGGAGGA | 0.15
85 | AGATGCACGTGGCAGG | -0.26
86 | TCTTACACGTGTTAGG | 0.12
87 | TAGTTCACGTGACGGA | 0.4
88 | CGAGGCACGTGTGCGT | -0.16
89 | GGGTCCACGTGTGGGG | 0.17
90 | TTTGGCACGTGTCATA | -0.21
91 | GCGTTCACGTGTGGGA | 0.24
92 | CTTGTCACGTGATTGA | 0.22

Row | Sequence | relative binding free energy [kcal/mol]
93 | GTTCTCACGTGGTTTT | 0.19
94 | GCTATCACGTGGGGTT | 0.06
95 | GAGTACACGTGTATGT | 0.03
96 | TACGGCACGTGGTGAT | -0.23
97 | GGACACACGTGGAGGG | -0.09
98 | TGAGTCACGTGAATTT | 0.37
99 | AACCGCACGTGGGTGG | -0.29
100 | GTTTGCACGTGGTGAT | 0.03
101 | AATAGCACGTGGGGGT | -0.31
102 | GATTTCACGTGACTGG | 0.35
103 | TCAAGCACGTGGGTGT | -0.33
104 | TAGGGCACGTGGTACT | -0.23
105 | TTTCACACGTGAAGGT | 0.32
106 | TAGGCCACGTGGGGGC | -0.19
107 | TGAGGCACGTGACGAT | 0
108 | TAATACACGTGGTGGA | 0.08
109 | TATCTCACGTGGTATT | 0.08
110 | TAGGGCACGTGGCATG | -0.26
111 | GTAGGCACGTGGTGTG | -0.16
112 | GACGGCACGTGTTAGG | 0.04
113 | GTTAACACGTGGTGAG | -0.08
114 | TTAGACACGTGGTGTG | 0.03
115 | AAGGCCACGTGTGGTG | -0.1
